Results taken from the supplement of paper PMC12217912.
This is one part of the list. Sequences were assembled here from the parent chain. Values near 0.05 are background.

B1: TEV protease; numbered along this chain (parent)
chain: MGESLFKGPRDYNPISSSICHLTNESDGHTTSLYGIGFGPFIITNKHLFRRNNGTLVVQSLHGVFKVKDTTTLQQHLVDGRDMIIIRMPKDFPPFPQKLKFREPQREERICLVTTNFQTKSMSSMVSDTSCTFPSGDGIFWKHWIQTKDGQCGSPLVSTRDGFIVGIHSASNFTNTNNYFTSVPKNFMELLTNQEAQQWVSGWRLNADSVLWGGHKVFMVKPEEPFQPVKEATQL

Variants of: B1
Experiment: raw area under fraction-flipped curve 0-4 h after induction (AUC4h, not background-subtracted), DNA-recorder readout of cleavage of the substrate (dimensionless); higher = more cleavage of the substrate by the protease variant
Settings: temperature: 34 °C; time window: 0-4 h after rhamnose induction
Description: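 In vivo DNA recorder in E. coli TOP10(DE3) ΔrhaA at 34 °C. Each TEVp single-site mutant (parent TEVp 0) is paired with a single-site variant of the 7-mer TEVs (canonical ENLYFQ|S). The substrate sits between flexible linkers in a Bxb1-sfGFP-TEVs-SsrA fusion, so cleavage stabilises Bxb1 and speeds flipping of a recombination array, read by NGS. The value is the raw area under the fraction-flipped curve over 0-4 h after rhamnose induction (AUC4h), with ≥20 reads per time point. It is not background-subtracted; inactive controls average about 0.047.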
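Also: Bxb1 expression induced with 0.2% (w/v) L-rhamnose at OD600 near 0.5, cultures sampled hourly, flipped fraction per protease–substrate barcode pair counted by paired-end Illumina sequencing.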

Variant | area with substrate ENLYFQA | area with substrate ENLYFQF | area with substrate ENLYFQI | area with substrate ENLYFQL | area with substrate ENLYFQM | area with substrate ENLYFQS | area with substrate ENLYFQC | area with substrate ENLYFQD | area with substrate ENLYFQG | area with substrate ENLYFQK | area with substrate ENLYFQN | area with substrate ENLYFQP | area with substrate ENLYFQR | area with substrate ENLYFQT | area with substrate ENLYFQW | area with substrate ENLYFQV | area with substrate ENLYFQY | area with substrate ENLYFQH | area with substrate ENLYFQQ | area with substrate ENLYFQE
I86Y | 0.0604 | 0.0704 | 0.0545 | 0.0557 | 0.053 | 0.0617 |  |  |  |  |  |  |  |  |  |  |  |  |  | 
I86A | 0.067 |  | 0.06 | 0.0559 | 0.0862 | 0.0685 | 0.0614 | 0.0523 | 0.0632 | 0.0539 | 0.0421 | 0.0376 | 0.0661 | 0.0589 | 0.0536 |  |  |  |  | 
Q151R | 0.121 | 0.0561 | 0.0584 | 0.0603 |  | 0.0982 | 0.0835 | 0.045 | 0.0884 | 0.0599 | 0.0639 | 0.0736 | 0.0594 | 0.0529 | 0.0644 | 0.0685 | 0.0554 |  |  | 
N186Q | 0.107 |  |  | 0.0712 |  | 0.106 | 0.119 |  |  | 0.0439 | 0.0975 | 0.0598 |  | 0.0682 | 0.0823 |  | 0.0822 | 0.0826 |  | 
F49E | 0.0533 | 0.0719 | 0.0513 | 0.0486 | 0.0587 | 0.0564 | 0.0603 | 0.0595 |  | 0.0621 | 0.0507 | 0.0604 | 0.0525 | 0.0549 | 0.0519 | 0.0275 | 0.0524 | 0.0513 | 0.0623 | 
V64S | 0.0978 |  | 0.0602 |  | 0.102 | 0.11 |  |  |  |  | 0.0794 |  | 0.0642 | 0.0425 | 0.0622 |  |  | 0.0747 |  | 
G153E | 0.0528 |  |  |  |  | 0.0549 |  |  |  |  |  | 0.0438 | 0.0487 | 0.045 |  |  |  |  |  | 
G28V | 0.071 | 0.067 | 0.0555 | 0.06 | 0.0852 | 0.0798 | 0.0856 | 0.0696 | 0.0734 |  | 0.0652 | 0.0543 | 0.0594 | 0.0653 |  |  | 0.0829 |  | 0.0834 | 
T70M | 0.0856 |  |  | 0.0573 |  | 0.0963 | 0.156 |  |  | 0.0596 | 0.0819 |  | 0.0755 |  |  |  |  |  |  | 
V126S | 0.0924 |  | 0.0556 | 0.0552 | 0.181 | 0.114 | 0.112 |  | 0.123 | 0.0938 | 0.0801 | 0.0499 | 0.06 | 0.0628 | 0.0599 | 0.0691 | 0.0795 |  |  | 
V126L | 0.08 |  |  | 0.0627 |  | 0.108 |  |  | 0.127 |  | 0.0859 | 0.0628 |  |  | 0.0502 |  |  |  |  | 
Q146L | 0.126 | 0.0759 |  |  | 0.122 | 0.13 | 0.149 | 0.0597 |  |  | 0.0749 |  | 0.0574 | 0.0689 | 0.0701 |  |  |  |  | 
I164S | 0.0568 | 0.0479 | 0.0539 | 0.0518 |  | 0.0597 | 0.0462 | 0.0786 | 0.0457 | 0.0608 |  |  | 0.0563 | 0.0523 |  | 0.0494 | 0.0569 | 0.0764 | 0.0613 | 0.0485
G54D | 0.0732 |  | 0.059 | 0.0709 | 0.059 | 0.0709 | 0.0716 | 0.0562 | 0.0716 | 0.054 | 0.0591 | 0.0539 | 0.0565 | 0.06 | 0.0601 | 0.0608 | 0.0456 | 0.0623 | 0.0622 | 0.0668
M122D | 0.099 | 0.0571 | 0.0617 | 0.0909 |  | 0.0998 | 0.11 |  | 0.0953 | 0.0658 | 0.0625 | 0.0619 |  | 0.0609 | 0.066 | 0.0682 | 0.0707 | 0.0765 |  | 
M122C | 0.108 | 0.0637 | 0.0486 | 0.0682 | 0.0839 | 0.103 | 0.124 | 0.0769 | 0.096 |  | 0.0783 |  | 0.0612 | 0.071 | 0.0702 | 0.0566 | 0.0769 | 0.0771 | 0.0457 | 0.0726
S201Y | 0.0829 |  | 0.0667 |  | 0.0692 | 0.0951 | 0.0957 |  |  |  | 0.0719 | 0.0762 | 0.0365 |  |  | 0.0636 | 0.0608 | 0.0742 | 0.0654 | 0.0603
K142Q | 0.0996 | 0.0675 | 0.032 | 0.0783 | 0.0917 | 0.096 | 0.113 | 0.0675 |  | 0.0678 | 0.0867 | 0.0641 | 0.0584 | 0.0704 |  | 0.0571 |  |  |  | 
M219P | 0.0756 | 0.0473 | 0.0636 | 0.0588 | 0.0665 | 0.0796 | 0.0999 | 0.0627 |  | 0.0569 |  |  | 0.0529 |  | 0.0544 | 0.052 | 0.0661 |  | 0.0292 | 
M219H | 0.0831 | 0.0433 | 0.0569 | 0.0685 | 0.0821 | 0.0997 | 0.0949 | 0.0678 | 0.0905 | 0.0653 | 0.0643 | 0.0569 | 0.0598 | 0.0504 | 0.0489 |  | 0.0627 |  |  | 
H76P | 0.0619 |  | 0.0383 | 0.0592 | 0.0516 | 0.0581 | 0.0612 | 0.0547 | 0.0518 | 0.062 |  | 0.0564 | 0.0385 | 0.0647 |  | 0.0513 | 0.056 | 0.051 |  | 0.0607
F180R | 0.0651 |  |  | 0.0434 | 0.0499 | 0.0529 | 0.0584 |  | 0.0413 | 0.0511 | 0.049 | 0.057 | 0.0507 | 0.046 | 0.063 | 0.0448 | 0.0363 |  |  | 
W141T | 0.061 |  |  | 0.0416 | 0.0591 | 0.0637 | 0.0665 | 0.0628 |  | 0.0593 | 0.0585 |  | 0.0542 |  | 0.049 |  |  |  |  | 
L235G | 0.0853 | 0.0785 | 0.0448 | 0.0835 | 0.0946 | 0.108 |  |  |  | 0.0699 |  |  |  |  |  |  | 0.0801 |  |  | 
A196Y | 0.106 | 0.0798 | 0.0683 | 0.0566 |  | 0.11 | 0.13 |  | 0.106 | 0.0667 | 0.089 |  | 0.0601 | 0.102 | 0.0696 |  |  | 0.0877 |  | 
V229P | 0.117 |  | 0.0528 | 0.0751 | 0.0957 | 0.117 | 0.113 | 0.0782 | 0.107 | 0.0568 | 0.0816 | 0.0604 | 0.0617 | 0.0422 | 0.0518 | 0.0619 | 0.0778 | 0.0944 | 0.0769 | 
I42T | 0.0629 |  | 0.0555 |  |  | 0.0604 | 0.0776 |  | 0.0463 |  |  | 0.0565 | 0.0251 |  |  |  | 0.0586 | 0.0479 |  | 0.0491
